Here are results for 42 sequences from paper PMC7819943, “Rice protein-binding microarrays: a tool to detect cis-acting elements near promoter regions in rice”.

This is one part of the list.

The experiment deals with T1, OsWOX13 (Oryza sativa, UniProt Q5QMM3 1-267).
T1 sequence: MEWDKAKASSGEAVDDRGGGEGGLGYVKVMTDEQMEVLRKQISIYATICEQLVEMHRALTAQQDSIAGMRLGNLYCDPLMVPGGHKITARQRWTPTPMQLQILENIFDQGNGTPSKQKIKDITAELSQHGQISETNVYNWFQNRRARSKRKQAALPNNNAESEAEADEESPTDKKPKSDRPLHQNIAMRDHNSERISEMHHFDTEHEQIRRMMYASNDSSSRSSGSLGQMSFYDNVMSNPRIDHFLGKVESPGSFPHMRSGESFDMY
Briefly: protein-binding microarray (RPBM); PBS, 2% BSA, 51.3 ng/ul salmon testes DNA, 50 uM zinc acetate, 200 nM TF, 25 C, 1 h; high values mean tight binding. To be noted: protein: recombinant; tags: N-terminal polyhistidine and DsRed monomer fusion (pET32a); label: CyDye5-dUTP incorporated in the synthesized complementary strand; 3' TTTTT single-stranded linker to array surface; dsDNA, one strand shown. An outline of the steps:
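The binding signal for each feature is its fluorescence intensity in arbitrary units. An Axon 4000B scanner was used to read a custom Agilent array that had been made double-stranded with Cy5-dUTP primer extension, blocked with 2% BSA, incubated at 25 °C for 1 h with 200 nM protein in PBS, 2% BSA, salmon testes DNA and 50 µM zinc acetate, and washed. The protein was an N-terminal polyhistidine–DsRed transcription factor fusion from E. coli BL21-CodonPlus, purified on Ni–NTA.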
Take “GGAAAGTGATTATATTTCATCAATAGATATCCCCTCGTTTCGGAGTCACCTAGTGCAG”: the binding signal was 18200 fluorescence intensity (a.u.). As for “ATTCACAAATTACTTTCCGTTTACAAATATACTGTTTTGCCGGAGTCACCTAGTGCAG”, the figure is 5750 fluorescence intensity (a.u.); as for “AGCTGATTTGCTTGAACATGAAGAGCTGAACAAAGACAGCCGGAGTCACCTAGTGCAG”, 26200 fluorescence intensity (a.u.); as for “GTGTTGCCTGATTGAGACTGTCCCTCAAGCAATAGAAATCCGGAGTCACCTAGTGCAG”, 12200 fluorescence intensity (a.u.). With “TAAATTTTAAATTTAAAATAATTAGCACTTAATTAATCATCGGAGTCACCTAGTGCAG”, the binding signal is 37300 fluorescence intensity (a.u.).

As for “GAAAATAATTAAATTTAAAATTGAGTTTTAAATTTTAATCCGGAGTCACCTAGTGCAG”, the binding signal was 22400 fluorescence intensity (a.u.).

Consider “AATTAATTATAGTATTGTTTAGTTTATTGTGTTTTGTGTTCGGAGTCACCTAGTGCAG”, for which the binding signal is 22100 fluorescence intensity (a.u.).

On to “AAGATTTTAGTTCAAATTATAATATGTGAGCGAGCCTGCTCGGAGTCACCTAGTGCAG”, for which the binding signal is 3710 fluorescence intensity (a.u.). In the case of “AGATAATACTTAATCATGTACTAATAAGTTACTTTGTTATCGGAGTCACCTAGTGCAG”, the binding signal was 3500 fluorescence intensity (a.u.). The result for “AAAGTGATTGATACGATGTAGAAGCATAGCAATAGCTGTCCGGAGTCACCTAGTGCAG” reads 48300 fluorescence intensity (a.u.). Regarding “ATAAATAAATACTCTAATTGCAAGCAACCAACGTCCCAACCGGAGTCACCTAGTGCAG”, the binding signal was 5780 fluorescence intensity (a.u.). The result for “TTTCAAATCAAATCCAATCCTCCTCCTCCAGATCTCTCCACGGAGTCACCTAGTGCAG” reads 3410 fluorescence intensity (a.u.); that for “TTTGATGATATCCTAATTTACAGCAAGACATTGGAGGAACCGGAGTCACCTAGTGCAG”, 28100 fluorescence intensity (a.u.); that for “ATCGATTTGGTGAGATTAATTGGGTTTCTAATGGTGGGGTCGGAGTCACCTAGTGCAG”, 13300 fluorescence intensity (a.u.). As for “AGTAATTTAAACACGAAAACATTTCTTATTGACAAGAATACGGAGTCACCTAGTGCAG”, the figure is 4230 fluorescence intensity (a.u.); as for “TTATTTAATTTAGAAAATTGGAGTTACCAGTTGTTCAGTTCGGAGTCACCTAGTGCAG”, 19500 fluorescence intensity (a.u.); as for “TCTTTCTAAAATTTAAAATTTATCCTGAAAGACTTATCACCGGAGTCACCTAGTGCAG”, 3150 fluorescence intensity (a.u.).

Turning to “ATATAAATAAATACAATTATAATAATAATCAAAATGGTCACGGAGTCACCTAGTGCAG”, the binding signal is 5150 fluorescence intensity (a.u.). “TTCGAACGGCGATTGTAATTGGTAGGGCCTATTCAGAATCCGGAGTCACCTAGTGCAG”: the binding signal is 4280 fluorescence intensity (a.u.). As for “GTACTATGTACTACGTATCAATCAATTAGTTAGGTGTTTGCGGAGTCACCTAGTGCAG”, the binding signal is 13500 fluorescence intensity (a.u.).

“ATAACAGTAACGATCTTCAATTATCTCTCCATGAACATAACGGAGTCACCTAGTGCAG”: the binding signal was 3300 fluorescence intensity (a.u.). As for “GTCTAATTGCTCTATGATTTAACAATGTAGTGCTACAGTACGGAGTCACCTAGTGCAG”, the figure is 52000 fluorescence intensity (a.u.); as for “AGGATCGTCCATTAAGAGTTGTCAATTATTATTACAGTTACGGAGTCACCTAGTGCAG”, 4620 fluorescence intensity (a.u.). The result for “TATGATTACTATTTTCATTGTTGTTAGATAATAAAACATGCGGAGTCACCTAGTGCAG” reads 27600 fluorescence intensity (a.u.); that for “GCATTTTAAATTGCAACGATTGCTCAGATTGGGAACTCCGCGGAGTCACCTAGTGCAG”, 8600 fluorescence intensity (a.u.).

As for “ATAATAAACTGAGAGGAGGATAGTAATATGTACTTAGTAACGGAGTCACCTAGTGCAG”, the binding signal was 4400 fluorescence intensity (a.u.). In the case of “TAAAACATAACATAATTGTTTCAACTCATATACTACACATCGGAGTCACCTAGTGCAG”, the binding signal was 14300 fluorescence intensity (a.u.). Consider “TATGTTTGAGATCGACGGTTAATTGAAACAAGTCGTTGCGCGGAGTCACCTAGTGCAG”, for which the binding signal is 4050 fluorescence intensity (a.u.). Regarding “TGTCCTGTTAACTGACTTCAAGTTGGAGATTTCACCAACCCGGAGTCACCTAGTGCAG”, the binding signal was 3720 fluorescence intensity (a.u.). Turning to “TAATTATTTGAATTAGTGATTTTGTACCAAATGATCGAACCGGAGTCACCTAGTGCAG”, the binding signal is 3660 fluorescence intensity (a.u.). “GTTTGATTGATTGATTTCGTGTACCATGCGGACTTCAGATCGGAGTCACCTAGTGCAG”: the binding signal was 65100 fluorescence intensity (a.u.). Turning to “TTCATTAATACATAATTAACTGAGTATTAATTAAAGTAATCGGAGTCACCTAGTGCAG”, the binding signal is 26700 fluorescence intensity (a.u.). Turning to “CTTCTAATTAGTGTCCAAACATTTGATATGACAAAGACTACGGAGTCACCTAGTGCAG”, the binding signal was 24900 fluorescence intensity (a.u.). For “GATCTCCAGGTGAATAAATGATTGCTTTCTTTAGCAACCACGGAGTCACCTAGTGCAG”, the binding signal is 4150 fluorescence intensity (a.u.). As to “ACCTTTAAAAGATTGGATTGGTATATTTTAACATTGATTACGGAGTCACCTAGTGCAG”, the binding signal is 11200 fluorescence intensity (a.u.). Turning to “GATAAATTTGATGTTGGAAACTCGGAGTATTTATGGTGGACGGAGTCACCTAGTGCAG”, the binding signal was 16700 fluorescence intensity (a.u.). For the sequence “TAAAATTACGATAATTTAATCTCTTGCTGTTTTCAGAAGCCGGAGTCACCTAGTGCAG”, the binding signal was 28100 fluorescence intensity (a.u.). The result for “TCAAAATAGACTTATTCAATATTAGGCCTCTACACGATGGCGGAGTCACCTAGTGCAG” reads 4380 fluorescence intensity (a.u.); that for “TGGAATGATGGATAAAGTCCAAGTTTGACCTGAGTCAAAGCGGAGTCACCTAGTGCAG”, 6270 fluorescence intensity (a.u.). Turning to “GTTAATTAAGCTCTGATAATTCTAACACTAGTGACAAATTCGGAGTCACCTAGTGCAG”, the binding signal was 21600 fluorescence intensity (a.u.). Regarding “CGAAACTGATATGGTGTACGCTGTCACCGAATACTATCTCCGGAGTCACCTAGTGCAG”, the binding signal is 4220 fluorescence intensity (a.u.). Turning to “ATTTAATGAATTATATGTGGAGTATGTGTAAAGTTTGACCCGGAGTCACCTAGTGCAG”, the binding signal is 8610 fluorescence intensity (a.u.).
